Results from publication PMC6919601, “Identification of Plasmodium dipeptidyl aminopeptidase allosteric inhibitors by high throughput screening” (PLoS ONE, 2019).
The whole screen tested about 110,000 compounds, of which about 230 (0.21%) showed an effect of 50% or more. Some of the results follow.

Target: DPAP1 (Plasmodium falciparum, UniProt Q8IIJ9)
Assay: primary screen, percent inhibition; read by cleavage of a fluorogenic dipeptide substrate; higher = more effect of the substance
Design: species or system P. falciparum D10 trophozoite lysates; single well
Experimental: HTS was performed in black 384-well plates. The first and last two columns of each plate contained our negative (DMSO) and positive (10 μM JCP410) controls, and the 20 central columns the test compounds at 10 μM. Compounds were first diluted 50-fold into assay buffer (50 mM sodium acetate, 5 mM MgCl2, 10 mM β-mercaptoethanol, and 0.1% CHAPS, pH 5.5) from a 10 mM DMSO stock plates. One microliter of this 200 μM intermediate stock plate was dispensed into the assay plate. […] After 30 min, the reaction was quenched with 20 μL of 0.5 M acetic acid, and the fluorescent intensity measured at 523 nm (λex = 492 nm) using an Analyst HT multimode plate reader (Molecular Devices).
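Note: 30 min substrate incubation versus DMSO and 10 µM JCP410 controls.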

DPAP1, sequence (Q8IIJ9 whole entry, looked up): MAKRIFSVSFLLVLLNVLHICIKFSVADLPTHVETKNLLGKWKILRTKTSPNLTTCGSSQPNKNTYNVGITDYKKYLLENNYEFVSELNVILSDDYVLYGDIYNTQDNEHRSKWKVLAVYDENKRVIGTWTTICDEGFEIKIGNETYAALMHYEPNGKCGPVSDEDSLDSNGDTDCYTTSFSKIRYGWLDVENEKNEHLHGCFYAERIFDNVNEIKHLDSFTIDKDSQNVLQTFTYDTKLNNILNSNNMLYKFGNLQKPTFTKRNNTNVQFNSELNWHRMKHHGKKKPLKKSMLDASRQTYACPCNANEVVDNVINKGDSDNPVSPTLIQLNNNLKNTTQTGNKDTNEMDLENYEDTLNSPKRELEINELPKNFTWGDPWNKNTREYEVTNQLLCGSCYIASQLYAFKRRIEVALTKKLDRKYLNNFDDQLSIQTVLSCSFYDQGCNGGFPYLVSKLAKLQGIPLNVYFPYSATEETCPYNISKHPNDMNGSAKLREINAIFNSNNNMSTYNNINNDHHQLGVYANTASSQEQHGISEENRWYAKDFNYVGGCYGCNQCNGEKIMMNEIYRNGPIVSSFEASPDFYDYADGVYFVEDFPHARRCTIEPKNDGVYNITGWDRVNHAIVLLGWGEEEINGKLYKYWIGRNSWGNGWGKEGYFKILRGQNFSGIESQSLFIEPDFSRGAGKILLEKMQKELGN

SMILES | % Inhibition @ 10 uM
CCOc1ccc(/C=C/C2=CC(C)(C)NC(S)=N2)c(Cl)c1 | -5.27%
CC(CCCC(C)(C)O)NC1CCCCCCC1 (centres unmarked) | -1.81%
Cc1ccc2ncc(S(=O)(=O)c3ccccc3)c(N3CCC4(CC3)OCCO4)c2c1 | -8.02%
Cc1cc2n(n1)C(c1cc(Br)ccc1O)Nc1ccccc1-2 (centres unmarked) | 0.83%
CC(C)C[C@H](NC(=O)/C=C/S(=O)(=O)c1ccccc1)C(=O)N1CCC[C@H]1C(=O)O | 5.05%
COc1ccccc1OCC(=O)NCCC1=CCCCC1 | -1.42%
O=C(COc1cc(Cl)c(Cl)cc1Cl)Nc1cccnc1 | 0.161%
O=C(Nc1ccc(NC(=O)c2ccco2)cc1)c1ccc(Cl)cc1 | -6.79%
O=C(CCc1ccccc1)n1nc(-c2ccccc2)nc1NCc1ccco1 | -1.11%
CCC(C)C(NC(=O)C1CCC(C)CC1)C(=O)NCCc1ccccc1 (centres unmarked) | -2.49%
CC1CCN(c2ccc3nnc(CCC(=O)Nc4cccnc4)n3n2)CC1 | -6.16%
Cc1ccccc1CCNC(=O)Cn1ccc2cc(S(=O)(=O)N3CCC(C)CC3)ccc21 | -1.81%
CCC[C@H](NC(=O)C(CSCc1ccccc1)CSCc1ccccc1)C(=O)c1nc2ccccc2o1 | -0.214%
CC(=O)c1ccc(N2C(=O)c3cccc4cc(Br)cc(c34)C2=O)cc1 | 11.3%
CC(C)(C)C1CCc2onc(C(=O)NCCc3ccccc3)c2C1 (centres unmarked) | -0.591%
Cc1sc(-n2cccc2CNCc2cccs2)c(C(=O)O)c1C | -3.57%
C=Cc1ccc(Cn2c(C(=O)O)c(CNC3CCC(C)CC3)c3ccccc32)cc1 (centres unmarked) | 1.93%
COc1cc(/C=C2/C(=N)N3OC(C)=CC3=NC2=O)ccc1O | -1.43%
Cc1[nH]c2ccccc2c1SCCNC(=O)COc1ccccc1 | -3.27%
Cc1ccc(C2=C/C(=C\c3ccccc3C)C(=O)O2)cc1 | -6.87%
CCn1c2ccccc2c2cc(CN3CCN(S(=O)(=O)c4ccc(OC)cc4)CC3)ccc21 | 22.9%

SMILES | % Inhibition @ 10 uM
COCCN1C(=O)/C(=C\c2cc3c(cc2Br)OCO3)S/C1=N\c1ccccc1 | 17.6%
COc1cc(/C=C2\C(=N)N3N=C(N4CCCC4)SC3=NC2=O)ccc1OCc1ccccc1F | 1.72%
Clc1ccc2scc(CN3CCCCC3)c2c1 | -2.45%
Cc1ccc(N2C(=O)C(Cl)=C(N3CCCCC3)C2=O)cc1Cl | -5.34%
CC(=O)c1sc(N2C(=O)c3oc4ccc(F)cc4c(=O)c3C2c2ccc(C(C)C)cc2)nc1C (centres unmarked) | 5.3%
COc1ccc(NC(=O)c2c(NC(=O)c3cccs3)sc3c2CCCC3)c(OC)c1 | -4.68%
COc1cccc(N(CC(=O)Nc2cccc(C)c2)S(=O)(=O)c2ccc(C)cc2)c1 | 0.00477%
CNC(=O)C1C(S)=NC(N)=C(C#N)C1c1ccccc1 (centres unmarked) | 0.746%
Nc1cc(S(=O)(=O)c2ccc(O)c(N)c2)ccc1O | -2.66%
COCCCNC(=O)Cn1cnc2sc(C)cc2c1=O | -5.76%
COc1cc(/C=c2\sc3nc(=O)c(C)nn3c2=O)ccc1OCCC(C)C | -3.06%
N#CC1=C(N)N(c2ccc(F)cc2)C2=C(C(=O)CCC2)C1c1cccs1 (centres unmarked) | 0.751%
CCCCn1c(SCC(=O)Nc2c(C)cccc2C)nc2c1c(=O)n(C)c(=O)n2C | 3.19%
O=C1CS/C(=N\c2ccccc2)N1c1ccccc1 | -2.51%
c1ccc2c(c1)c(NC1CCCCCCC1)nn1nnnc21 | 0.368%
C=CCN(c1nc(C)cc(OC)n1)S(=O)(=O)c1ccc(C)cc1 | -2.03%
CC(N)CNc1ccc([N+](=O)[O-])c2cccnc12 (centres unmarked) | 2.17%
CC1=CC2=NC(=O)/C(=C\c3cccn3CCOc3ccccc3)C(=N)N2O1 | -1.43%
CC[C@H](NC(=O)[C@H](Cc1c(F)cccc1F)NC(=O)c1ccc(-c2ccccc2Cl)nc1)C(=O)c1nc2ccccc2o1 | -0.207%
CC(=O)c1cnc2cc(-c3ccccc3)nn2c1C | 6.21%
COC(=O)C1=C(C(=O)OC)SC(=C2C(=S)C(C)(C)Nc3cc(C)ccc32)S1 | -2%

SMILES | % Inhibition @ 10 uM
Cc1cc(C)c(C#N)c(SCC(=O)N2CCCCC2)n1 | 16.7%
CCC(NS(=O)(=O)c1ccc(Cl)cc1)C(=O)O (centres unmarked) | -0.902%
Cc1cccc(NC(=O)CN(C2CCCCC2)S(C)(=O)=O)c1C | -6.62%
O=C(NCCN1CCCCCC1)c1cc2c(s1)-c1ccccc1OC2 | 4.95%
CCn1cc(/C=C(\NC(=O)c2ccc(C)cc2)C(=O)NCCCN2CCOCC2)c2ccccc21 | -3.52%
O=C1CC(c2ccccc2)CC(=O)C1=CNCc1ccncc1 (centres unmarked) | -0.142%
CCOC(=O)c1c(C)[nH]c(C)c1S(=O)(=O)N1CCC(C(=O)NCCC2=CCCCC2)CC1 | -8.67%
Cn1ncc2c(NCC3CCCO3)ncnc21 (centres unmarked) | -1.1%
O=C(NCCC1=CCCCC1)C1CCCN(S(=O)(=O)c2ccc3nc(O)ccc3c2)C1 (centres unmarked) | -3.43%
CCOCCCN1CC(C(=O)NCCc2ccccc2)CC1=O (centres unmarked) | -4.83%
O=c1cc(-c2ccc(Cl)cc2)sc2nnc(-c3ccncc3)n12 | 3.47%
Brc1ccc(-c2cn3ncsc3n2)cc1 | 0.548%
Cc1cccc(C)c1NC(=O)CSc1nc(N)cc(O)n1 | -0.116%
CC(=O)c1ccc(NC(=O)COc2ccc(C)cc2Br)cc1 | -2.03%
CC(C)C[C@H](NC(=O)c1cccc(-c2ccccc2S(C)(=O)=O)c1)C(=O)NCC#N | 1.35%
O=C(Nc1ccc(-c2noc(-c3cccs3)n2)cc1)c1cccc(Br)c1 | 1.19%
CC(=O)N1CCN(CC(C)c2ccccc2)CC1 (centres unmarked) | -3.8%
CC(C)Cn1c(=O)c2ccccc2n2c(CCC(=O)N3CCN(C(=O)c4ccco4)CC3)nnc12 | -2.42%
Clc1ccc(CN2CCN(c3ccccc3)CC2)c(Cl)c1 | -3.56%
COc1ccc(C(=O)Cn2ccnc2C(=O)N2CCN(c3ccccn3)CC2)cc1 | 6.31%
